# “And” between values parts separate entries of the source, which are not always exact repeats. Equal values may be shown once. Inconclusive results, whose numbers are uncertain, are shown with a selection of clear calls. For some assays here: A potency beside an inconclusive call is a rough fit, not a confirmed value. Some structures have more than one record in an assay (separate samples or runs), and their calls can disagree. The source made the active and inactive calls. Unless noted, the call rests on the fitted dose curve; in most records, active means well fitted curve in the direction sought with a large enough effect in the repeat runs; inconclusive means weak or mixed curves; inactive means no such curve, though single readings can be large; an effect the other way counts as inactive or inconclusive.
# Tests used:
# [1] = target: Luciferin 4-monooxygenase (Photinus pyralis) (UniProt P08659); test: qHTS assay to identify small molecule inhibitors of firefly luciferase (AID 1224835); further: nearly all actives have a fitted effect of over 25% in size; further: potency means the concentration at half of the fitted maximal effect
# Outline: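 Biochemical qHTS: compounds run as interplate titrations against purified firefly enzyme, with D-luciferin and ATP each at its KM concentration. Light output recorded by CCD imaging.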
# [2] = target: Thyrotropin receptor (Homo sapiens) (UniProt P16473); test: qHTS assay to identify small molecule agonists of the thyroid stimulating hormone receptor (TSHR) signaling pathway (AID 1224843; calls by dose curve; further: nearly all actives have a fitted effect of over 45% in size; further: potency means the concentration at half of the fitted maximal effect; on activation: on the % scale 0 is the no-effect control and ±100 the full control effect); conditions: TSHR-HEK293 cells, cAMP HTRF, agonist mode, 30 min; activation: at 92.4 µM (top of the series) unless noted
# Outline: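 HEK293/TSHR, 800 cells/well; cpd 30 min RT; add cAMP-d2 + anti-cAMP-cryptate, 1 h RT; fluorescence read on plate reader. 15-pt titration, n=3.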
# [3] = qHTS assay to identify small molecule agonists of H2AX (AID 1224845; active means well fitted activation curve with a large enough effect in the signal ratio in the repeat runs, not every such curve was filed as active; inconclusive means weak or mixed curves; the % refers to the signal ratio; further: potency means the concentration at half of the fitted maximal effect; on activation (H2AX phosphorylation): on the % scale 0 is the no-effect control and ±100 the full control effect); conditions: CHO-K1 phospho-H2AX Ser139 HTRF, 3 h; activation (H2AX phosphorylation): at 154 µM (top of the series) unless noted
# Outline: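 Wild-type CHO-K1 cells, plated overnight, exposed 3hr at 37C to 15 concentrations (0.76% DMSO final). Lysed, then HTRF anti-pH2AX (S139) cryptate and anti-H2AX-d2 antibodies, 24 hr room temperature; 665/620 nm emission read.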
# [4] = qHTS assay to identify small molecule agonists of H2AX - cell viability counter screen (AID 1224847; calls by dose curve; further: nearly all actives have a fitted effect of over 30% in size; further: potency means the concentration at half of the fitted maximal effect)
# Outline: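 CHO-K1 wt, 1000 cells/well, o/n 37C; cpds 15 conc, 3 h 37C, 0.76% DMSO; CellTiter-Glo, 30 min RT, luminescence.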
# [5] = qHTS assay to identify small molecule antagonists of the estrogen related receptor signaling pathway with the pleiotropic PPARgamma coactivator (PGC) from Tox21 10K library (AID 1224841; call rule not given here; further: potency means the concentration at half of the fitted maximal effect; actives are mostly falling curves and most rising ones were filed inactive; nearly all actives have a fitted effect of over 50% in size)
# Outline: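 Test chemicals dissolved in DMSO were applied to pre-incubated (6 h) PGC/ERR cells at 2,000 cells/well for an 18 h, 37 C treatment; reporter luminescence was then read using One-Glo.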
# [6] = qHTS assay to identify small molecule agonists of the hypoxia (HIF-1) signaling pathway - cell viability counter screen (AID 1224844; calls by dose curve; further: potency means the concentration at half of the fitted maximal effect; nearly all actives have a fitted effect of over 50% in size)
# Outline: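 HRE-bla ME-180; 0.5% dFBS; cpd 17 h, 37C, 5% CO2; CellTiter-Glo lum., 30 min RT, post-FRET read, same wells.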
# [7] = target: Nuclear receptor subfamily 1 group I member 3 (Homo sapiens) (UniProt Q14994); test: qHTS assay to identify small molecule agonists of the constitutive androstane receptor (CAR) signaling pathway (AID 1224839); further: nearly all actives have a fitted effect of over 15% in size; further: potency means the concentration at half of the fitted maximal effect;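 on activation: HepG2 cells stably carrying human CAR and a CYP2B6 luciferase reporter; on the % scale 0 is the no-effect control and ±100 the full control effect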
# Outline: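 Luminescence read-out (ONE-Glo, 30 min, room temperature) from double-stable HepG2-CYP2B6-hCAR cells exposed 24 h to 15-point compound series in presence of 0.75 uM PK11195 final.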
# [8] = qHTS assay to identify small molecule agonists of the hypoxia (HIF-1) signaling pathway (AID 1224846; active means well fitted activation curve with a large enough effect in the signal ratio in the repeat runs, not every such curve was filed as active; inconclusive means weak or mixed curves; the % refers to the signal ratio; further: potency means the concentration at half of the fitted maximal effect; on activation: on the % scale 0 is the no-effect control and ±100 the full control effect); conditions: HRE-bla ME-180 cells, beta-lactamase ratio, 17 h; activation: at 76.8 µM (top of the series) unless noted
# Outline: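 Reporter induction in HRE-bla ME-180 cells is taken as agonism: cells sit 5 hrs after plating, receive compounds or DMSO only, incubate 17 hrs at 37C under 5% CO2, and are loaded with CCF4-AM for beta-lactamase FRET measurement.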
# [9] = qHTS RealTime-Glo MT Cell Viability Assay in HepG2 cells - 24 hour (AID 1224867); further: potency means the concentration at half of the fitted maximal effect; nearly all actives have a fitted effect of over 50% in size
# Outline: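 HepG2 cells (600/well) were dispensed with RealTime-Glo reagents, incubated 5 h at 37 °C, then treated with compounds in DMSO for up to 40 h. Nonlytic NanoLuc luminescence reflecting viable cells was read at each stated time point.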
# [10] = qHTS assay to identify small molecule agonists of the estrogen related receptor (ERR) signaling pathway from Tox21 library (AID 1224849; calls by dose curve; further: on the % scale 0 is the no-effect control and ±100 the full control effect; nearly all actives have a fitted effect of over 15% in size); conditions: ERR reporter cell line, ONE-Glo luciferase, 18 h; at 92.4 µM (top of the series) unless noted
# Outline: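 Tox21 compounds tested for ERR agonism in an NTP reporter cell line: 18 h treatment at 37 C, then ONE-Glo luminescence.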
# [11] = qHTS RealTime-Glo MT Cell Viability Assay in HEK293 cells - 32 hour (AID 1224868); further: potency means the concentration at half of the fitted maximal effect; nearly all actives have a fitted effect of over 50% in size
# Outline: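 HEK293 cells seeded with NanoLuc/prosubstrate reagent, rested 5 h at 37 C, then dosed and kept at 37 C up to 40 h. Nonlytic real-time luminescence from viable cells read at 0, 8, 16, 24, 32 and 40 h.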
# [12] = qHTS assay to identify small molecule antagonists of the estrogen related receptor signaling pathway with the pleiotropic PPARgamma coactivator (PGC) from Tox21 10K library - cell viability counter screen (AID 1224840; active means well fitted cell-killing curve with a large enough effect in the repeat runs, not every such curve was filed as active; inconclusive means weak or mixed curves, or effect the other way; inactive means no such curve, though single readings can be large or run the other way; further: nearly all actives have a fitted effect of over 40% in size; further: potency means the concentration at half of the fitted maximal effect)
# Outline: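 Seeded PGC/ERR cells (2,000/well, 6 h, 37 C/5% CO2) get compound by pin tool; 17.5 h incubation at 37 C; CellTiter-Fluor added, 30 min, fluorescence measured.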
# [13] = qHTS assay to identify small molecule antagonists of the estrogen related receptor (ERR) signaling pathway from Tox21 library (AID 1224848)
# Outline: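 Compounds dissolved in DMSO are pin-transferred onto ERR reporter cells (2,000 per well) that have settled for 6 h at 37 C. Plates then incubate 18 h at 37 C before ONE-Glo luciferase reagent and a luminescence read 30 min later.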
# Tags describe the fitted curve by direction and shape or compound fluorescence and quenching.
# Sequence of UniProt P16473 (P16473 whole entry, looked up): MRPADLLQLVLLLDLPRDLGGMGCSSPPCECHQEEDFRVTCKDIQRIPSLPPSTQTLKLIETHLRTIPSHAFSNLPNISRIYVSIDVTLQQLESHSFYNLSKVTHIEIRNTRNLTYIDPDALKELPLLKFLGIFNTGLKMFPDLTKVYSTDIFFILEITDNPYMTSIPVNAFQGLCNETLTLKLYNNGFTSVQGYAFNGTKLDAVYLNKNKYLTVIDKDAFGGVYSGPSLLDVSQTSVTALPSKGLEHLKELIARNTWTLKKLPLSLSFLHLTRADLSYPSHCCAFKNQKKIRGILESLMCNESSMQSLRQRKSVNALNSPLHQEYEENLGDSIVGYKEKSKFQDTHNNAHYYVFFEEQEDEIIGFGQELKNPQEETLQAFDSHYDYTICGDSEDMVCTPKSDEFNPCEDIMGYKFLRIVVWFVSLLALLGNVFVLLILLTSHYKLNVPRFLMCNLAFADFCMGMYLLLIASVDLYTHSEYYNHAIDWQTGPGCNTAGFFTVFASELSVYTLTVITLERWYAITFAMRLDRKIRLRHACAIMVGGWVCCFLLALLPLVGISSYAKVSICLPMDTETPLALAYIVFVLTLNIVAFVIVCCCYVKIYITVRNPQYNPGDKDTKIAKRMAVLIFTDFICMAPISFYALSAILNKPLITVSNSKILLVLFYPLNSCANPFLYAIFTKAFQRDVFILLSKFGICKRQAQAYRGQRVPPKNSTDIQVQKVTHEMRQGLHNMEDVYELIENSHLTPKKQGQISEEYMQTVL
# Sequence of UniProt P08659 (P08659 whole entry, looked up): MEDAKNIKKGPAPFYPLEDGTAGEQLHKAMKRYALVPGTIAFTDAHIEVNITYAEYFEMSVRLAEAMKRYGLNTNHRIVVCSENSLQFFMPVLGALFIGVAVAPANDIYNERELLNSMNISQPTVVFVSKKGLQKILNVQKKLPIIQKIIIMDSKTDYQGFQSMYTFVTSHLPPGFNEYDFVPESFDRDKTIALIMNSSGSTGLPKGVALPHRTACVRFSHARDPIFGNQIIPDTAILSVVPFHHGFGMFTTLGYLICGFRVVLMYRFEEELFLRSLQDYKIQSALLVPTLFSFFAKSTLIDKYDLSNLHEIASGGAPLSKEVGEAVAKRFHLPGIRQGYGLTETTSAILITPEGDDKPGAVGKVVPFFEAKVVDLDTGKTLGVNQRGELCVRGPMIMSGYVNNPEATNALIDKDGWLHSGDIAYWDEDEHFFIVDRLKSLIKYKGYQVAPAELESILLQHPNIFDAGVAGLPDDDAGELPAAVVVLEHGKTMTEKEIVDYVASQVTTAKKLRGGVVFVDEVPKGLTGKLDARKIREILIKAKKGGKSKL
# Sequence of UniProt Q14994 (Q14994 whole entry, looked up): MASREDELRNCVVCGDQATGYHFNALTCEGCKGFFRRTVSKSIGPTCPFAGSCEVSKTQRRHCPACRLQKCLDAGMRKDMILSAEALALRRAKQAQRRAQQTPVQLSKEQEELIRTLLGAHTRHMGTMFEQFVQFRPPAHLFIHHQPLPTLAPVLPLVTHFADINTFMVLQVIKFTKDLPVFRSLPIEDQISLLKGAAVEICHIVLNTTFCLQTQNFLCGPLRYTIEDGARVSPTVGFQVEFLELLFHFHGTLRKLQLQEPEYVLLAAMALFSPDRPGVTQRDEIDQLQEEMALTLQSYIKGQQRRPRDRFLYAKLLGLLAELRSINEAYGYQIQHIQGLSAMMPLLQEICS
structure (smiles),measurement,setting,value
O=C(Oc1ccccc1)c1ccccc1O,Potency,[1],"inconclusive: 17.4 µM [inhibitor, partial curve]"
same,Potency,[2],inactive
same,activation (H2AX phosphorylation),[3],inconclusive: 12.5%
same,Potency,[4],"inconclusive: 114 µM [cytotoxic, single point] and inconclusive: 127 µM [cytotoxic, single point]"
Oc1cccc(O)c1,Potency,[1],inactive
same,Potency,[5],active: 0.0188 µM
same,Potency,[2],inactive
same,Potency,[6],"inconclusive: 12.3 µM [cytotoxic, partial curve]"
CCOC(=O)c1ccc(OC(=O)CCCCCN=C(N)N)cc1,Potency,[1],"inconclusive: 30.9 µM [inhibitor, partial curve]"
same,Potency,[7],"inconclusive: 23.7 µM [activator, partial curve, poor fit]"
O=C(Cl)c1cc(C(=O)Cl)cc(C(=O)Cl)c1,Potency,[1],"inconclusive: 22.4 µM [inhibitor, full curve]"
same,Potency,[2],inactive
same,Potency,[6],"inconclusive: 24.5 µM [cytotoxic, partial curve]"
same,Potency,[8],"inconclusive: 61.6 µM [falling, single point]"
same,Potency,[9],"inconclusive: 54.9 µM [falling, single point]"
BrCc1cccc(Oc2ccccc2)c1,Potency,[1],"inconclusive: 35.6 µM [inhibitor, partial curve]"
same,Potency,[7],"inconclusive: 61.1 µM [activator, partial curve]"
same,Potency,[8],inactive
same,Potency,[4],inactive
Cc1ccc(C(=O)c2ccccc2)cc1,Potency,[1],active: 31.7 µM
same,Potency,[7],"inconclusive: 61.1 µM [activator, partial curve, poor fit]"
same,Potency,[2],"inconclusive: 21.7 µM [inhibitor, full curve]"
same,Potency,[4],"inconclusive: 1.79 µM [cytotoxic, single point]"
Oc1cccc(Nc2ccccc2)c1,Potency,[1],active: 37.1 µM
same,Potency,[7],"inconclusive: 35.8 µM [activator, partial curve]"
same,Potency,[3],"inconclusive: 59.1 µM [cytotoxic, partial curve]"
same,Potency,[4],"inconclusive: 132 µM [cytotoxic, single point]"
Cc1ccc(O)c(O)c1,Potency,[1],"inconclusive: 86.9 µM [inhibitor, single point]"
same,Potency,[7],active: 47.2 µM
same,activation,[2],inconclusive: -3.2%
same,Potency,[6],"inconclusive: 59.9 µM [cytotoxic, single point]"
same,Potency,[3],inconclusive: 49.1 µM
same,"activity change, positive = activation",[10],inconclusive: -9.57%
same,Potency,[11],"inconclusive: 53.4 µM [cytotoxic, single point]"
CCCCCCCCCI,Potency,[1],inconclusive: 91 µM [inhibitor]
same,Potency,[12],inactive
same,Potency,[2],active: 24.8 µM
same,Potency,[9],"inconclusive: 39.6 µM [falling, partial curve]"
Cc1cc(C)c(/C=C2\C(=O)Nc3ccccc32)[nH]1,Potency,[1],"inconclusive: 8.71 µM [inhibitor, full curve]"
same,Potency,[6],"inconclusive: 21.3 µM [cytotoxic, partial curve, poor fit]"
Cc1cc(C(=C2C=CC(=Nc3ccc(S(=O)(=O)O)cc3S(=O)(=O)O)C=C2)c2ccc(Nc3ccc(S(=O)(=O)O)cc3)cc2)ccc1N,Potency,[1],active: 23.2 µM
same,Potency,[7],inactive
same,Potency,[3],inconclusive: 52.1 µM
Cc1ccccc1N=Nc1ccc(N=Nc2c(O)ccc3ccccc23)c(C)c1,Potency,[1],"inconclusive: 30.9 µM [inhibitor, partial curve]"
same,Potency,[7],"inconclusive: 23.7 µM [activator, partial curve]"
same,Potency,[4],"inconclusive: 43.8 µM [cytotoxic, partial curve]"
Nc1ccc2cc(S(=O)(=O)O)ccc2c1,Potency,[1],"inconclusive: 50.2 µM [inhibitor, partial curve]"
same,Potency,[7],inactive
same,Potency,[3],"inconclusive: 50.5 µM [falling, partial curve]"
CCOC(=O)C(C#N)=C(c1ccccc1)c1ccccc1,Potency,[1],inactive
same,Potency,[5],"inconclusive: 48.6 µM [falling, partial curve, poor fit]"
same,Potency,[13],"inconclusive: 23.7 µM [inhibitor, partial curve]"
N#CSc1ccc(N)c([N+](=O)[O-])c1,Potency,[1],"inconclusive: 56.7 µM [inhibitor, partial curve, poor fit]"
same,Potency,[7],inactive
same,Potency,[12],active: 54.8 µM
same,Potency,[2],"inconclusive: 12.3 µM [inhibitor, full curve]"
same,Potency,[6],"inconclusive: 11 µM [cytotoxic, full curve]"
same,Potency,[8],"inconclusive: 24.7 µM [falling, full curve, poor fit]"
same,Potency,[9],"inconclusive: 55.3 µM [falling, partial curve, poor fit]"
